Among all 52,000 compounds or so, about 1,700 (3.3%) were called active. Cut-off read from the data, not from the text of the source: active = survival mostly below about 52% (no sharp cut-off); inactive = mostly above about 56%. The list shows a part of the results.

The test system of the experiment is Wild type. The experiment in a line: growth inhibition of S. aureus wild type versus tarO mutant, primary screen, teichoic acid synthesis inhibitors, RN4220, OD600 (AID 463173). The settings on record: S. aureus RN4220 wild type/DeltatarO growth, OD600, 18 h, active compounds read low, screened at 18.75 µg/mL (by protocol).
In the case of `Cc1ccc(S(=O)(=O)c2c(Nc3ccccc3)sc(C(=O)c3ccc4c(c3)OCO4)c2N)cc1`, the survival is inactive: 84%.

As to `O=C(c1cccs1)N1CCCC(c2nc3c(nnn3Cc3ccc(F)cc3)c(=O)[nH]2)C1` (stereo not given), the survival was inactive: 119%.

As to `COc1ccc(OC)c(NC(=O)Cn2ccn(-c3ccc(F)cc3)c(=O)c2=O)c1`, the survival was inactive: 84%.

Regarding `COc1ccc(-c2nc(SCC(=O)NCC3CCCO3)c(-c3ccc(Cl)cc3)[nH]2)cc1` (stereo not given), the survival is inactive: 83%.

Turning to `Cc1c(Cl)ccc2sc(NC(=O)c3ccc(S(=O)(=O)N4CCCC4)cc3)nc12`, the survival is inactive: 78%.

In the case of `O=C(NCc1ccc2c(c1)CCN2C(=O)c1ccncc1)c1ccccc1Br`, the survival is inactive: 75%.

`COc1ccc(C)cc1S(=O)(=O)Nc1cccc(-c2ccc(N3CCCC3)nn2)c1`: the survival is inactive: 77%.

In the case of `CCN1C(=O)C(O)(C(C)C(=O)c2ccccc2)c2ccccc21` (stereo not given), the survival was inactive: 111%.

As to `Cc1ccc2ncc(C(=O)Nc3cccc(C(F)(F)F)c3)c(=O)n2c1`, the survival was inactive: 122%.

Regarding `CC(C)c1ccc(NC(=O)c2cc3c(=O)oc4ccccc4c3s2)cc1`, the survival was inactive: 87%.

Regarding `COc1ccccc1NC(=O)c1sc2cccc(Cl)c2c1Cl`, the survival was inactive: 71%.

For the molecule `CCOc1ccc(CCNC(=O)c2cc3c(=O)n(C)c4ccccc4c3s2)cc1OCC`, the survival is inactive: 66%.

Regarding `CCc1ccc(OCC(=O)NCC(c2ccc(Cl)cc2)N2CCOCC2)cc1` (stereo not given), the survival is inactive: 106%.

Consider `CCOC(=O)c1ccc2ncc(C(=O)OCC)c(NCCc3ccc(OC)c(OC)c3)c2c1`, for which the survival is inactive: 64%.

For `O=C(c1cccnc1)N1CCC(Cc2ccccc2)CC1`, the survival is inactive: 115%.

As for `CCCC12CN3CC(C)(CN(C1)C3c1ccc(CC)cc1)C2=O` (stereo not given), the survival is inactive: 96%.

As to `Cc1cccc(N2CCN(C(c3ccc(F)cc3)c3nnc(-c4ccccc4)o3)CC2)c1C` (stereo not given), the survival is inactive: 28%.

For the molecule `COc1cccc(N2CCN(C(=O)c3cnc4c(C)cccn4c3=O)CC2)c1`, the survival was inactive: 91%.

For `O=C(CC(c1cccs1)N1Cc2ccccc2C1=O)Nc1ccccc1` (stereo not given), the survival is inactive: 82%.

On to `CCN1CCN(C(=O)Cn2ncc3c4ccccc4n(Cc4ccccc4F)c3c2=O)CC1`, for which the survival is inactive: 82%.

Turning to `O=c1cc2nc(-c3ccccc3)nc(SCc3cccc(Br)c3)n2[nH]1`, the survival is inactive: 73%.

For `Cc1cccc(NC(=O)CSc2nc3ccccc3c3nc(CCn4cncc4C)nn23)c1`, the survival is inactive: 83%.

With `COc1ccc(N2CCN(C(CNC(=O)C(=O)NCc3ccc(C)cc3)c3cccnc3)CC2)cc1` (stereo not given), the survival is inactive: 83%.

In the case of `CC(C)Oc1ccc(CNC(=O)C2CCN(C(=O)N3CCOc4ccc(Cl)cc43)CC2)cc1`, the survival is inactive: 79%.

Regarding `CCC(c1nnnn1C(C)(C)CC)N(Cc1cc2ccc(C)cc2[nH]c1=O)C1CCCC1` (stereo not given), the survival is inactive: 105%.

For the molecule `Cc1ccccc1-c1nc(NC(=O)CSc2ncnc3sc4c(c23)CCCC4)ns1`, the survival is inactive: 88%.

On to `CCNC(=O)c1c(NC(=O)c2cc(=O)c3ccc(C)c(C)c3o2)sc2c1CCCC2`, for which the survival was inactive: 85%.

Turning to `Cc1cccc(N2CCN(S(=O)(=O)c3ccc(F)c(C(=O)Nc4cccc(Cl)c4C)c3)CC2C)c1` (stereo not given), the survival was inactive: 100%.

Regarding `CCCC1C2CN(C(C)C)CC=C2C(C#N)=C(N)C1(C#N)C#N` (stereo not given), the survival is inactive: 107%.

For `Cc1ccc(Cl)cc1N1CCN(C(=O)C(C)n2ncn3cccc3c2=O)CC1` (stereo not given), the survival is inactive: 83%.

Turning to `CCCCN(CCCC)C(=O)c1cc2c(=O)n3ccccc3nc2s1`, the survival was inactive: 61%.

Take `CC1CCCCN1S(=O)(=O)c1ccc(NC(=O)C2COc3ccccc3O2)cc1` (stereo not given): the survival is inactive: 125%.

Take `O=C(NC1CC2CCC(C1)N2C(=O)NC1CCCCC1)NC12CC3CC(CC(C3)C1)C2` (stereo not given): the survival is inactive: 113%.

For `Cc1nn(-c2ccccc2)c2c1cc1c(=O)[nH]c(=O)nc-1n2-c1cccc(C(F)(F)F)c1`, the survival was inactive: 116%.

Take `COc1ccc(Nc2ncnc3c2cnn3C)c(OC)c1`: the survival was inactive: 82%.

Turning to `O=C(NCCSc1c(-c2ccc(Cl)cc2)[nH]c2ccccc12)c1ccc(S(=O)(=O)N2CCOCC2)cc1`, the survival is inactive: 89%.

With `O=S(=O)(Nc1ccc(-c2ccc(N3CCCCCC3)nn2)cc1)c1ccc(C(F)(F)F)cc1`, the survival was inactive: 73%.

In the case of `O=C(CN1CCN(Cc2ccc(F)cc2)C1=O)NCc1ccccc1`, the survival is inactive: 88%.

Consider `Cc1ccccc1SCC(=O)O`, for which the survival is inactive: 106%.

`Cc1ccc2c(c1)-c1onc(C(=O)N3CCN(c4cccc(C)c4C)CC3)c1CO2`: the survival was inactive: 87%.

As to `Cc1cc(C)c(S(=O)(=O)NCC(c2ccco2)N2CCN(c3ccccc3)CC2)c(C)c1` (stereo not given), the survival was inactive: 85%.

For `Cc1ccc(-n2nc3c(=O)n(CCCC(=O)NCc4ccc(F)cc4)nc(C)c3c2C)cc1`, the survival is inactive: 77%.

For the molecule `COC(=O)c1c(NC(=O)c2c(OC)cccc2OC)sc2c1CCCC2`, the survival was active: 3%.

As to `CC1CCCCN1S(=O)(=O)c1ccc2[nH]c(=O)cc(C(=O)NCCc3ccc(Cl)cc3)c2c1` (stereo not given), the survival was inactive: 63%.

For the molecule `CC(C)Cc1cc(C(=O)O)nc(=O)[nH]1`, the survival is inactive: 109%.

Turning to `O=C(Nc1ccccn1)c1ccccc1O`, the survival was inactive: 110%.

With `COc1cccc(NC(=O)c2oc3ccc(S(=O)(=O)N4CCOCC4)cc3c2C)c1`, the survival is inactive: 74%.

As to `CC(C)OCCCNC(=O)CN1C(=O)CSc2ccc(S(=O)(=O)N3CCOCC3)cc21`, the survival is inactive: 71%.

As to `C=Cc1ccc(Cn2c(C(=O)OC)cc3sc(C)cc32)cc1`, the survival is active: 0%.

Regarding `CCc1ccccc1N1C(=O)CC(N2CCc3ccccc32)C1=O` (stereo not given), the survival is inactive: 101%.

As to `COc1cc(SC)ccc1C(=O)N1CCCC(C)C1` (stereo not given), the survival is inactive: 88%.

With `CC(=O)c1cccc(Nc2ncnc3c2cnn3-c2cccc(Cl)c2)c1`, the survival is inactive: 81%.

For the molecule `COc1cccc(NC(=O)CC2Oc3ccccc3NC2=O)c1` (stereo not given), the survival is inactive: 77%.

`CC(=O)Nc1c(C(=O)Nc2ccccc2F)oc2ccccc12`: the survival is inactive: 128%.

As to `COC(=O)C1(C)NC(c2ccccc2C)C2C(=O)N(C)C(=O)C21` (stereo not given), the survival is inactive: 98%.

With `CCc1ccc(Nc2nc3c(S(=O)(=O)c4cccc(Cl)c4)nnn3c3ccsc23)cc1`, the survival was inactive: 96%.

With `CNc1nc(Oc2ccc(=O)[nH]n2)nc(N2CCOCC2)n1`, the survival was inactive: 72%.

For the molecule `COc1ccc(-n2cc(C(=O)Nc3ccccc3C#N)c3ccccc3c2=O)cc1`, the survival was inactive: 109%.

Take `O=C(CSc1nnc(Cc2ccccc2)n1Cc1ccccc1)NCc1ccco1`: the survival is inactive: 100%.

Turning to `COc1cccc(-n2cc(C(=O)Nc3ccccc3C(N)=O)c3ccccc3c2=O)c1`, the survival was inactive: 80%.

As to `Cc1nc(SCCOc2ccc(Cl)cc2)[nH]c(=O)c1Cc1ccccc1`, the survival was inactive: 84%.

As to `CC(C)(C)c1ccc(S(=O)(=O)N2CCC(c3ccncc3)CC2)cc1`, the survival was inactive: 120%.

For `CCOc1ccc(NC(=O)Cn2c(=O)n(Cc3ccccc3)c(=O)c3c4c(sc32)CN(C(C)=O)CC4)cc1`, the survival was inactive: 88%.

For `O=C(Nc1cccnc1)C1CC(c2ccccc2O)=NO1` (stereo not given), the survival was inactive: 120%.

Take `Cc1ccc(NC(=O)CN2C(=O)COc3ccc(S(=O)(=O)N4CCOCC4)cc32)c(Cl)c1`: the survival was inactive: 98%.

As for `O=C(c1cccc([N+](=O)[O-])c1)N1CCN(CCc2ccncc2)CC1`, the survival was inactive: 81%.

In the case of `CCOc1ccccc1NC(=O)c1nn(-c2ccc(OC)cc2)c(=O)c2c1c1ccccc1n2C`, the survival is inactive: 91%.

In the case of `COc1ccc(OC)c(CNC(=O)CCC(=O)N2Cc3ccccc3Oc3ncccc32)c1`, the survival was inactive: 118%.

With `COc1ccc2nc(NC(=O)c3nc(SCc4cccc(C)c4)ncc3Cl)sc2c1`, the survival is inactive: 81%.

For the molecule `COc1ccc(N2CC(NC(=O)C3CCCC3)CC2=O)cc1` (stereo not given), the survival was inactive: 82%.

On to `COc1ccccc1NC(=O)C1=C(C)Nc2ncnn2C1c1sccc1C` (stereo not given), for which the survival was inactive: 73%.

With `Cc1ccccc1CNC(=O)Cn1cc2c(n1)-c1c(oc(C(=O)N3CCCC3)c1C)CC2`, the survival is inactive: 109%.

On to `O=C(O)c1csc2c1CCCC2`, for which the survival was inactive: 115%.

For the molecule `Cc1cccc(C(=O)Nc2sc3c(c2C(=O)O)CCCC3)c1`, the survival is inactive: 40%.

With `Cc1cc(C)cc(NC(=O)CN(C)S(=O)(=O)c2ccc3c(c2)CCC(=O)N3)c1`, the survival is inactive: 91%.

Take `COc1ccc(N(CC(=O)N2CCN(c3ccc(F)cc3)CC2)S(=O)(=O)c2c(C)nn(C)c2C)cc1`: the survival was inactive: 80%.

As to `CC(=O)c1c(C)oc2ccc(N(C(=O)c3ccncc3)S(=O)(=O)c3ccc(F)cc3C)cc12`, the survival was inactive: 137%.

As to `CCOc1ccc(OCC)c(NC(=O)CSc2nc3c(c(=O)n(C)c(=O)n3C)n2C(C)C)c1`, the survival was inactive: 99%.

With `COc1cc(Cl)c(NC(=O)CN(C)S(=O)(=O)c2ccc3[nH]c4c(c3c2)CCCC4)c(OC)c1`, the survival was inactive: 80%.

As to `CCCOc1ccc(CNC(=O)Cn2c(=O)oc3ccccc32)cc1`, the survival was inactive: 66%.

Take `COc1cccc(CNC(=O)c2cccc(NC(=O)c3nsc4ccccc34)c2)c1`: the survival is inactive: 67%.

Regarding `COc1ccc(NS(=O)(=O)c2ccc3c(c2)n(C)c(=O)c(=O)n3C)cc1Cl`, the survival was inactive: 77%.

On to `CCOC(=O)C(CC)Sc1nnc2[nH]c(=O)cc(C)n12` (stereo not given), for which the survival was inactive: 64%.

Regarding `COc1cccc(CNC(=O)CC(c2ccc(C)cc2)N2Cc3ccccc3C2=O)c1` (stereo not given), the survival was inactive: 71%.

On to `Cc1ccc(CNC(=O)c2cnn(-c3ccc(F)cc3F)c2C2CCN(C(=O)OC(C)(C)C)CC2)cc1`, for which the survival was inactive: 69%.

`CCCOc1ccc(C2C(=O)N(C3CCCCC3)CC(=O)N2CCC2=CCCCC2)cc1OC` (stereo not given): the survival is inactive: 78%.

With `COc1cccc(CNC(=O)CCS(=O)(=O)c2cc3c4c(c2)CCN4C(=O)CC3)c1`, the survival was inactive: 54%.

For `O=C(CSc1n[nH]c(-c2ccccc2)n1)NCCc1ccccc1`, the survival is inactive: 77%.

Take `COc1cc(-c2nc3cnccn3c2Nc2ccc(C(C)C)cc2)ccc1O`: the survival is inactive: 77%.

In the case of `COc1ccccc1-c1ccnc2c(-c3ccc(Br)cc3)c(C)nn12`, the survival was inactive: 77%.

Source of the values: PubChem BioAssay AID463173 (ICCB-Longwood Screening Facility, Harvard Medical School, 2010).
